Measured values as given in US10040767B2, “Benzimidazole derivatives and uses thereof” (Peloton Therapeutics, Inc., priority 2014, dated 2018).

Test system: 786-O renal cell carcinoma cells
Assay: 786-O Xenograft Study (in vivo efficacy)
Parameters: species or system SCID/Biege mice
Conditions: 200 mg/kg BID oral gavage, after 20 days of dosing, n=8
Description: Example 85: In Vivo Efficacy Study
Efficacy studies for Compounds 79, 116, 119 and 183: All compounds were formulated with 10% absolute ethanol, 30% PEG400, 60% water containing 0.5% methyl cellulose and 0.5% Tween80®. About 5×10^6 786-O renal cell carcinoma cells (ATCC® CRL-1932™) in PBS and Matrigel (1:1 in volume) were inoculated subcutaneously in the right flank of SCID/Biege mice at 6-7 weeks of age for tumor development. When the xenografts reached about 200 mm^3 in size, the tumor-bearing mice were randomly grouped into six groups (n=8) and treated by oral gavage with Compound 79, Compound 116, Compound 119, Compound 183 (each at 200 mg/kg BID), and vehicle (BID) for 20 days. Tumor sizes were measured twice weekly in two dimensions using a caliper and the volume expressed in mm^3 using the formula V=0.5×a×b^2, wherein a and b were the long and short diameters of the tumor, respectively.

C[C@@H](O)CNC(=O)c1ccc2nc(C(O)(c3ccccc3F)c3ccccc3F)n(C)c2c1 [Compound 116]
Tumor Size (mm^3) Mean ± SEM: 597.5 ± 72.5 mm^3

CCn1c(C(O)(c2ccccc2F)c2ccccc2F)nc2ccc(C(=O)NC[C@@H](C)O)cc21 [Compound 119]
Tumor Size (mm^3) Mean ± SEM: 475.2 ± 60.7 mm^3

C[C@@H](O)CNC(=O)c1ccc2nc(C(O)(c3ccccc3)c3ccccc3)n(C)c2c1 [Compound 183]
Tumor Size (mm^3) Mean ± SEM: 668.9 ± 62.5 mm^3
